Read-outs that look alike come from different tables or passages of the source. Part of at least one peptide drawing is inferred or uncertain, most often the ends. Starred links: 1 amine or outer side, 2 acyl side, 3 side chain; linkers in the order of their positions; H or OH if unused. Non-standard residues stand in square brackets, D forms with d. Residues, ends and D or L forms follow the SMILES beside them. Groups on a side chain read outwards from the residue. *: point of attachment. C18 diacid = O=C(O)CCCCCCCCCCCCCCCCC(=O)*; C17 diacid = O=C(O)CCCCCCCCCCCCCCCC(=O)*; γGlu = O=C(O)[C@H](CCC(=O)[*:2])N[*:1]; NMeY = CN[C@@H](Cc1ccc(O)cc1)C(=O)O; AEEA = NCCOCCOCC(=O)O; Aib = CC(C)(N)C(=O)O
Target: T1, human GLP-1R (Homo sapiens, UniProt P43220)
T1 construct: HEK-293T cells overexpressing full-length human GLP-1R; FLAG (N); host or cells: HEK-293T
T1 sequence (P43220 24-463): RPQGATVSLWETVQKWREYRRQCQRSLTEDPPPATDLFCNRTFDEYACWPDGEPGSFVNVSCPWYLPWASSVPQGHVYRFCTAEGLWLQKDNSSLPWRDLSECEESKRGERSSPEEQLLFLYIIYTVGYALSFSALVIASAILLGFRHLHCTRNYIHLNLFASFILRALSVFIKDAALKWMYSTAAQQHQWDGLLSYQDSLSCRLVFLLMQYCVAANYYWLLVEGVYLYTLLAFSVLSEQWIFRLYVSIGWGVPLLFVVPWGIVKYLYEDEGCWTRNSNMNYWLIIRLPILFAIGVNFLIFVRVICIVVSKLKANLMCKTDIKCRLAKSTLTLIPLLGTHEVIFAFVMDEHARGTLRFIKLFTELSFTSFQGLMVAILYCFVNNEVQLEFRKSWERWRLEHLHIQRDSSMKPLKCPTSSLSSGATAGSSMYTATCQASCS
Assay: Human GLP1R agonist activity, intracellular cAMP accumulation
Assay type: cell-based
Protocol: Cells are cultured per the manufacturer's protocol in DMEM with 10% fetal bovine serum and 1 μg/mL puromycin and stored in frozen aliquots to be used as assay ready cells. On the day of the assay, cells are removed from frozen storage, washed two times in 1× Kreb's Ringer Buffer (Zenbio, Research Triangle Park, N.C.), and re-suspended to a concentration of 4×10^5 cells/mL in 1× Kreb's Ringer Buffer. […] Cells are incubated with test compound for 1 hr at room temperature in the dark, and cAMP accumulation is measured using the Cisbio HiRange cAMP assay kit (Bedford, Mass.) per the manufacturer's protocol. Anti-cAMP antibody and d2-cAMP tracer reagents diluted in lysis/detection buffer are incubated in the dark for 1 hr, and results are measured on an Envision plate reader (Perkin Elmer, Waltham, Mass.). Data is normalized using 1 nm GLP-1 as 100% activity, and DMSO alone as 0% activity.

[1] = HEK-293T cells overexpressing human GLP-1R, 1 hr, read-out: Human GLP1R cAMP EC50, HEK293T
[2] = read-out: Human GLP1R cAMP EC50, HEK293T, HEK-293T cells overexpressing human GLP-1R, 1 hr

SMILES | EC50 [1] | EC50 [2]
CC[C@H](C)[C@H](NC(=O)[C@H](Cc1ccccc1)NC(=O)[C@@H](NC(=O)CNC(=O)[C@H](CCC(=O)O)NC(=O)C(C)(C)NC(=O)[C@H](Cc1ccc(O)cc1)NC)[C@@H](C)O)C(=O)N[C@@H](CO)C(=O)N[C@@H](CC(=O)O)C(=O)N[C@@H](Cc1ccc(O)cc1)C(=O)N[C@@H](CO)C(=O)N[C@H](C(=O)NC(C)(C)C(=O)N[C@@H](CC(C)C)C(=O)N[C@@H](CC(=O)O)C(=O)N[C@@H](CCCNC(=N)N)C(=O)NC(C)(C)C(=O)N[C@@H](C)C(=O)N[C@@H](CCC(N)=O)C(=O)NC(C)(C)C(=O)N[C@@H](CCCCNC(=O)COCCOCCNC(=O)COCCOCCNC(=O)CC[C@H](NC(=O)CC[C@H](NC(=O)CCCCCCCCCCCCCCCC(=O)O)C(=O)O)C(=O)O)C(=O)N[C@@H](Cc1ccccc1)C(=O)N[C@H](C(=O)N[C@@H](CC(N)=O)C(=O)N[C@@H](Cc1c[nH]c2ccccc12)C(=O)N[C@@H](CC(C)C)C(=O)N[C@@H](CC(C)C)C(=O)N[C@@H](C)C(=O)N[C@@H](CCC(N)=O)C(=O)N[C@@H](CO)C(=O)N1CCC[C@H]1C(=O)NCC(=O)O)C(C)C)[C@@H](C)CC [Compound 126] (H-[NMeY][Aib]EGTFISDYSI[Aib]LDR[Aib]AQ[Aib]K([AEEA-AEEA-γGlu-γGlu-C17 diacid])FVNWLLAQSPG-OH) | 30.9 nM | –
CC[C@H](C)[C@H](NC(=O)[C@H](CO)NC(=O)[C@H](Cc1ccc(O)cc1)NC(=O)[C@H](CC(=O)O)NC(=O)[C@H](CO)NC(=O)[C@@H](NC(=O)[C@H](Cc1ccccc1)NC(=O)[C@@H](NC(=O)CNC(=O)[C@H](CCC(=O)O)NC(=O)C(C)(C)NC(=O)[C@H](Cc1ccc(O)cc1)NC)[C@@H](C)O)[C@@H](C)CC)C(=O)N[C@@H](C)C(=O)N[C@@H](CC(C)C)C(=O)N[C@@H](CC(=O)O)C(=O)N[C@@H](CCCNC(=N)N)C(=O)N[C@H](C(=O)N[C@@H](Cc1c[nH]cn1)C(=O)N[C@@H](CCC(N)=O)C(=O)NC(C)(C)C(=O)N[C@@H](CC(N)=O)C(=O)N[C@@H](Cc1ccccc1)C(=O)N[C@H](C(=O)N[C@@H](CC(N)=O)C(=O)N[C@@H](Cc1c[nH]c2ccccc12)C(=O)N[C@@H](CC(C)C)C(=O)N[C@@H](CC(C)C)C(=O)N[C@@H](C)C(=O)N[C@@H](CCC(N)=O)C(=O)N[C@@H](CCCCNC(=O)COCCOCCNC(=O)COCCOCCNC(=O)CC[C@H](NC(=O)CCCCCCCCCCCCCCCCC(=O)O)C(=O)O)C(=O)N1CCC[C@H]1C(=O)N[C@@H](CO)C(=O)N[C@@H](CO)C(=O)NCC(=O)N[C@@H](C)C(=O)N1CCC[C@H]1C(=O)N1CCC[C@H]1C(=O)N1CCC[C@H]1C(=O)N[C@@H](CO)C(N)=O)C(C)C)[C@@H](C)CC [Compound 2] (H-[NMeY][Aib]EGTFISDYSIALDRIHQ[Aib]NFVNWLLAQK([AEEA-AEEA-γGlu-C18 diacid])PSSGAPPPS-NH2) | – | 525 nM
CC[C@H](C)[C@H](NC(=O)[C@H](CO)NC(=O)[C@H](Cc1ccc(O)cc1)NC(=O)[C@H](CC(=O)O)NC(=O)[C@H](CO)NC(=O)[C@@H](NC(=O)[C@H](Cc1ccccc1)NC(=O)[C@@H](NC(=O)CNC(=O)[C@H](CCC(=O)O)NC(=O)C(C)(C)NC(=O)[C@H](Cc1ccc(O)cc1)NC)[C@@H](C)O)[C@@H](C)CC)C(=O)N[C@@H](C)C(=O)N[C@@H](CCCCNC(=O)COCCOCCNC(=O)COCCOCCNC(=O)CC[C@H](NC(=O)CCCCCCCCCCCCCCCCC(=O)O)C(=O)O)C(=O)N[C@@H](CC(=O)O)C(=O)N[C@@H](CCCNC(=N)N)C(=O)NC(C)(C)C(=O)N[C@@H](C)C(=O)N[C@@H](CCC(N)=O)C(=O)NC(C)(C)C(=O)N[C@@H](CC(N)=O)C(=O)N[C@@H](Cc1ccccc1)C(=O)N[C@H](C(=O)N[C@@H](CC(N)=O)C(=O)N[C@@H](Cc1c[nH]c2ccccc12)C(=O)N[C@@H](CC(C)C)C(=O)N[C@@H](CC(C)C)C(=O)N[C@@H](C)C(=O)N[C@@H](CCC(N)=O)C(=O)N[C@@H](CCCCN)C(N)=O)C(C)C [Compound 6] (H-[NMeY][Aib]EGTFISDYSIAK([AEEA-AEEA-γGlu-C18 diacid])DR[Aib]AQ[Aib]NFVNWLLAQK-NH2) | 83.2 nM | –
CC[C@H](C)[C@H](NC(=O)[C@H](CCCCN)NC(=O)[C@H](CC(=O)O)NC(=O)[C@H](CC(C)C)NC(=O)[C@H](C)NC(=O)[C@@H](NC(=O)[C@H](CO)NC(=O)[C@H](Cc1ccc(O)cc1)NC(=O)[C@H](CC(=O)O)NC(=O)[C@H](CO)NC(=O)[C@@H](NC(=O)[C@H](Cc1ccccc1)NC(=O)[C@@H](NC(=O)CNC(=O)[C@H](CCC(=O)O)NC(=O)C(C)(C)NC(=O)[C@@H](N)Cc1ccc(O)cc1)[C@@H](C)O)[C@@H](C)CC)[C@@H](C)CC)C(=O)N[C@@H](C)C(=O)N[C@@H](CCC(N)=O)C(=O)N[C@@H](CCC(N)=O)C(=O)N[C@@H](CCCCNC(=O)COCCOCCNC(=O)COCCOCCNC(=O)CC[C@H](NC(=O)CC[C@H](NC(=O)CCCCCCCCCCCCCCCC(=O)O)C(=O)O)C(=O)O)C(=O)N[C@@H](Cc1ccccc1)C(=O)N[C@H](C(=O)N[C@@H](CCC(=O)O)C(=O)N[C@@H](Cc1c[nH]c2ccccc12)C(=O)N[C@@H](CC(C)C)C(=O)N[C@@H](CC(C)C)C(=O)N[C@@H](C)C(=O)N[C@@H](CCC(N)=O)C(=O)N[C@@H](CCCNC(=N)N)C(=O)N1CCC[C@H]1C(=O)N[C@@H](CO)C(=O)N[C@@H](CO)C(=O)NCC(=O)N[C@@H](C)C(=O)N1CCC[C@H]1C(=O)N1CCC[C@H]1C(=O)N1CCC[C@H]1C(=O)N[C@@H](CO)C(=O)O)C(C)C [Compound 134] (H-Y[Aib]EGTFISDYSIALDKIAQQK([AEEA-AEEA-γGlu-γGlu-C17 diacid])FVEWLLAQRPSSGAPPPS-OH) | – | 170 nM
CC[C@H](C)[C@H](NC(=O)[C@H](CO)NC(=O)[C@H](Cc1ccc(O)cc1)NC(=O)[C@H](CC(=O)O)NC(=O)[C@H](CO)NC(=O)[C@@H](NC(=O)[C@H](Cc1ccccc1)NC(=O)[C@@H](NC(=O)CNC(=O)[C@H](CCC(=O)O)NC(=O)C(C)(C)NC(=O)[C@H](Cc1ccc(O)cc1)NC)[C@@H](C)O)[C@@H](C)CC)C(=O)N[C@@H](C)C(=O)N[C@@H](CC(C)C)C(=O)N[C@@H](CC(=O)O)C(=O)N[C@@H](CCCNC(=N)N)C(=O)NC(C)(C)C(=O)N[C@@H](Cc1c[nH]cn1)C(=O)N[C@@H](CCC(N)=O)C(=O)NC(C)(C)C(=O)N[C@@H](CC(N)=O)C(=O)N[C@@H](Cc1ccccc1)C(=O)N[C@H](C(=O)N[C@@H](CC(N)=O)C(=O)N[C@@H](Cc1c[nH]c2ccccc12)C(=O)N[C@@H](CCCCNC(=O)COCCOCCNC(=O)COCCOCCNC(=O)CC[C@H](NC(=O)CCCCCCCCCCCCCCCCC(=O)O)C(=O)O)C(=O)N[C@@H](CC(C)C)C(=O)N[C@@H](C)C(=O)N[C@@H](CCC(N)=O)C(=O)N[C@@H](CCCNC(=N)N)C(N)=O)C(C)C [Compound 186] (H-[NMeY][Aib]EGTFISDYSIALDR[Aib]HQ[Aib]NFVNWK([AEEA-AEEA-γGlu-C18 diacid])LAQR-NH2) | ≥ 1000 nM | –

Source: US20230143604A1, “QW DOSING OF GIP RECEPTOR AGONIST PEPTIDE COMPOUNDS AND USES THEREOF” (TAKEDA PHARMACEUTICAL COMPANY LIMITED, priority 2020, published 2023)
